# The supplement of paper PMC4967469
# IC50 is the fitted dose that halves viability relative to control wells, and lower means more sensitive; a fit beyond the top or the lowest dose is shown as a bound at that dose. AUC sums up the same curve from the lowest dose to the 256-fold higher top dose; the more sensitive the line, the further below 1. The top dose, if marked as inferred, is not printed in the source and was worked back from the curve model.
# Experiments:
# Assay in all cases: Viability of human cancer cell lines after 72 h of drug (GDSC screen)
# Vinorelbine = compound: CCC1=C[C@@H]2CN(C1)Cc1c([nH]c3ccccc13)[C@@](C(=O)OC)(c1cc3c(cc1OC)N(C)[C@H]1[C@@](O)(C(=O)OC)[C@H](OC(C)=O)[C@]4(CC)C=CCN5CC[C@]31[C@@H]54)C2 [Vinorelbine]; details: top dose 0.064 µM; top dose inferred
# Experimental: (§1)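 Human cancer cell lines in 384-well plates, medium with 10% serum, drug for 72 h over a 256-fold dose range (nine 2-fold or five 4-fold steps up to the top dose). Adherent lines were fixed and stained with the nucleic acid dye Syto60, suspension lines read with resazurin; signal relative to control wells, capped at 0 and 100%. One two-parameter sigmoid per drug and line, fitted in a mixed model over all curves with the slope shared within a line.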
# AG-014699 = compound: CNCc1ccc(-c2[nH]c3cc(F)cc4c3c2CCNC4=O)cc1 [AG-014699]; details: top dose 5 µM; top dose inferred
# Experimental: as §1
# NU-7441 = compound: O=c1cc(N2CCOCC2)oc2c(-c3cccc4c3sc3ccccc34)cccc12 [NU-7441]; details: top dose 2 µM; top dose inferred
# Experimental: as §1
# QL-XI-92 = compound: C=CC(=O)Nc1cc(NC(=O)c2ccc(C)c(NC(=O)c3ccno3)c2)cc(C(F)(F)F)c1 [QL-XI-92]; details: top dose 10.24 µM; top dose inferred
# Experimental: as §1
# S-Trityl-L-cysteine = compound: N[C@@H](CSC(c1ccccc1)(c1ccccc1)c1ccccc1)C(=O)O [S-Trityl-L-cysteine]; details: top dose 5.12 µM; top dose inferred
# Experimental: as §1
# XL-184 = compound: COc1cc2nccc(Oc3ccc(NC(=O)C4(C(=O)Nc5ccc(F)cc5)CC4)cc3)c2cc1OC [XL-184]; details: top dose 5.12 µM; top dose inferred
# Experimental: as §1
# Phenformin = compound: N=C(N)NC(=N)NCCc1ccccc1 [Phenformin]; details: top dose 4000 µM; top dose inferred
# Experimental: as §1
# WHI-P97 = compound: COc1cc2ncnc(Nc3cc(Br)c(O)c(Br)c3)c2cc1OC [WHI-P97]; details: top dose 10.24 µM; top dose inferred
# Experimental: as §1
# EHT 1864 = compound: O=c1cc(CN2CCOCC2)occ1OCCCCCSc1ccnc2cc(C(F)(F)F)ccc12 [EHT 1864]; details: top dose 10 µM; top dose inferred
# Experimental: as §1
Cell Line,AUC (Vinorelbine),IC50 (Vinorelbine) [µM],AUC (AG-014699),IC50 (AG-014699) [µM],AUC (NU-7441),IC50 (NU-7441) [µM],AUC (QL-XI-92),IC50 (QL-XI-92) [µM],AUC (S-Trityl-L-cysteine),AUC (XL-184),IC50 (XL-184) [µM],AUC (Phenformin),IC50 (Phenformin) [µM],AUC (WHI-P97),IC50 (WHI-P97) [µM],AUC (EHT 1864),IC50 (EHT 1864) [µM],IC50 (S-Trityl-L-cysteine) [µM]
"A101D (melanoma, adherent)",0.626,0.00965,0.979,> 5,0.833,1.72,0.98,> 10.2,0.732,0.895,> 5.12,0.542,333,0.962,> 10.2,0.974,> 10,
"A498 (kidney, adherent)",0.682,0.0168,0.971,> 5,0.976,> 2,0.965,> 10.2,0.945,0.973,> 5.12,0.936,> 4000,0.972,> 10.2,0.939,> 10,> 5.12
"BT-474 (breast, adherent)",0.801,0.0358,0.937,> 5,0.985,> 2,0.949,> 10.2,0.936,0.935,> 5.12,0.606,507,0.977,> 10.2,0.89,> 10,> 5.12
"Calu-6 (lung adenocarcinoma, adherent)",,,0.978,> 5,0.984,> 2,0.95,> 10.2,0.58,0.927,> 5.12,0.475,211,0.958,> 10.2,,,0.546
"DEL (lymphoid neoplasm, suspension)",0.435,0.00277,0.993,> 5,0.994,> 2,0.842,5.06,0.693,0.987,> 5.12,0.684,721,0.963,> 10.2,0.992,> 10,0.973
"ES3 (Ewing sarcoma, adherent)",0.721,0.0176,,,0.975,> 2,0.93,> 10.2,0.966,0.956,> 5.12,0.842,3040,0.946,> 10.2,0.947,> 10,> 5.12
"GAK (melanoma, adherent)",0.85,0.0451,0.982,> 5,0.977,> 2,0.987,> 10.2,0.859,0.98,> 5.12,0.84,2570,0.988,> 10.2,,,3.93
"H-EMC-SS (chondrosarcoma, adherent)",0.93,> 0.064,0.973,> 5,0.981,> 2,0.933,> 10.2,0.957,0.677,1.16,0.959,> 4000,0.955,> 10.2,0.924,> 10,> 5.12
"HCE-4 (oesophagus, adherent)",0.579,0.00637,0.986,> 5,,,0.992,> 10.2,0.592,0.992,> 5.12,0.974,> 4000,0.992,> 10.2,0.967,> 10,0.55
"HEL (acute myeloid leukaemia, semi-adherent)",0.852,0.0371,0.992,> 5,,,0.888,8.13,0.82,0.97,> 5.12,0.686,750,0.954,> 10.2,0.979,> 10,2.32
"HH (T-cell leukaemia, suspension)",0.564,0.00633,0.965,> 5,0.828,1.84,0.849,> 10.2,0.791,0.921,> 5.12,0.45,174,0.968,> 10.2,0.921,> 10,3.2
"HT-144 (melanoma, adherent)",0.276,0.000853,0.954,> 5,0.938,> 2,0.98,> 10.2,0.514,0.954,> 5.12,0.69,911,0.977,> 10.2,0.931,> 10,0.35
"IST-MES1 (mesothelioma, adherent)",0.909,> 0.064,0.943,> 5,,,0.975,> 10.2,0.94,0.885,> 5.12,0.91,> 4000,0.974,> 10.2,0.85,7.7,> 5.12
"JAR (urogenital system, adherent)",0.89,> 0.064,0.974,> 5,0.982,> 2,0.926,> 10.2,0.619,0.984,> 5.12,0.862,3290,0.969,> 10.2,0.904,> 10,0.676
"KALS-1 (glioma, adherent)",0.531,0.00501,0.969,> 5,,,0.92,> 10.2,0.692,0.953,> 5.12,0.532,315,0.957,> 10.2,0.94,> 10,1.36
